Test in all cases: Primary Screen for Target Class Profiling of Small Molecule Inhibitors of Methyltransferases
For assay [1], the target named is Glycine N-methyltransferase (Homo sapiens) (UniProt Q14749). The note with it: purified enzyme, MTase-Glo SAH luminescence; measured here: GNMT inhibition; at 40 µM; stronger effect = lower value. A digest of the protocol: (§1)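 Each enzyme was assayed with SAM and its substrate. SAH formation detected by MTase-Glo luminescence; single-point 40 uM screen[…].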

Assay [2] has as its target Guanidinoacetate N-methyltransferase (Homo sapiens) (UniProt Q14353). To be noted: purified enzyme, MTase-Glo SAH luminescence; measured here: GAMT inhibition; at 40 µM; stronger effect = lower value. The method, boiled down:
as §1

Assay [3] concerns the target Histamine N-methyltransferase (Homo sapiens) (UniProt P50135). To be noted: purified enzyme, MTase-Glo SAH luminescence; measured here: HNMT inhibition; at 40 µM; stronger effect = lower value. The method, boiled down: as §1
Assay [4] addresses Nicotinamide N-methyltransferase (Homo sapiens) (UniProt P40261). The note with it: purified enzyme, MTase-Glo SAH luminescence; measured here: NNMT inhibition; at 40 µM; stronger effect = lower value. The method, boiled down:
as §1

Assay [5] has as its target Phenylethanolamine N-methyltransferase (Homo sapiens) (UniProt P11086). The note with it: purified enzyme, MTase-Glo SAH luminescence; measured here: PNMT inhibition; at 40 µM; stronger effect = lower value. The method, boiled down:
as §1

Where “and” joins values, the source holds several entries; their conditions need not be identical. Equal entries are not always repeated. Some of the results follow. Further columns of the screen follow, without active or inactive calls.
% is set by controls: 0 for no effect and ±100 for the full control effect.

Consider `CC(C)CC(=O)c1c(O)cc2c(c1O)C(CC(C)C)C1=C(O2)C(C)(C)C(=O)C(C)(C)C1=O` (stereo not given), for which the activity change, negative = inhibition in assay [1] is -3.85%; in assay [2], -9.84%; in assay [3], 1.33%; in assay [4], -22.8%; in assay [5] it was -1.55%.
On the same counts, the results for `O=C1CN(C(=O)c2cccc(C(F)(F)F)c2)CC(OCc2cccnc2)CN1CC1CCOCC1` (stereo not given) are -3.58%, -10.9%, -5.64%, -17.1% and -11.1%.
Turning to `CC1CCN(S(=O)(=O)c2cc3[nH]c(=O)[nH]c3cc2Cl)CC1`, the activity change, negative = inhibition in assay [1] is -6.64%; in assay [2] it was 3.61%; in assay [3], 1%; in assay [4], -12.8%; in assay [5] it was -12.9%.
Regarding `CCCN1C(=O)c2c(C(=O)NCc3cc(OC)ccc3OC)ncn2CC1(C)C(=O)NCc1ccccc1` (stereo not given), the activity change, negative = inhibition in assay [1] is -5.74%; in assay [2], 4.2%; in assay [3] it was 3.13%; in assay [4] it was 6.5%; in assay [5] it was -3.9%.
The corresponding values for `CC(C)NC(=O)c1ccc2c(=O)n(C(C)C)c3nn(CC(=O)NCc4ccc(Cl)cc4)c(=O)n3c2c1` are 9.05%, 1.38%, 6.15%, 1.92% and 8.13%.
On the same counts, the results for `CC1c2cccn2CCN1C(=O)Nc1ccccc1Cl` (stereo not given) are -9.39%, -1.55%, -14.2%, -23.5% and -9.86%.
Consider `CCCSCCCN1C(=O)c2nc3ccccc3n2CC1(C)C(=O)NC1CCCC(C)C1C` (stereo not given), for which the activity change, negative = inhibition in assay [1] is 3.1%; in assay [2] it was 0%; in assay [3], 5.11%; in assay [4] it was -3.51%; in assay [5] it was -1.7%.
Turning to `CC(C)NC[C@H](O)c1ccc(O)c(O)c1`, the activity change, negative = inhibition in assay [1] is -27.4% and -14.5%; in assay [2] it was -3.67% and 6.22%; in assay [3], -7.8% and -0.122%; in assay [4], -14.1% and -8.08%; in assay [5], -8.89% and -3.31%.
For `CC(C)Oc1ccc(CN2C(=O)c3oc4ccccc4c3OCC2(C)C(=O)NC2CCCC2)cc1` (stereo not given), the activity change, negative = inhibition was -7.52% in assay [1]; 4.6% in assay [2]; 1.2% in assay [3]; 0.038% in assay [4]; 1.53% in assay [5].
In the case of `CCC(=O)N(C1CCOCC1)C1CCN(Cc2ccc[nH]2)CC1`, the activity change, negative = inhibition in assay [1] is -5.61%; in assay [2] it was 1.29%; in assay [3], 1.18%; in assay [4] it was -4.53%; in assay [5], -0.09%.
In the case of `CCc1cc2c(cc3n2CC(C)(C(=O)NC2CCCCCC2)N(Cc2ccccc2)C3=O)s1` (stereo not given), the activity change, negative = inhibition in assay [1] was 2.27%; in assay [2] it was 0%; in assay [3] it was 8.99%; in assay [4], -1.35%; in assay [5] it was 1.6%.
The corresponding values for `CC(=O)OC1CC2C3(C)CCC(OC(=O)CC(=O)O)C(C)(C)C3CCC2(C)C2(C)CCC(C3(C)CCC(=O)O3)C12` (stereo not given) are 4.93%, 2.52%, 12.7%, -13.1% and 3.31%.
On the same counts, the results for `Cc1ccc(C(=O)Cn2nc3n(Cc4ccccc4)c(=O)c4ccc(C(=O)NC(C)C)cc4n3c2=O)cc1` are 5.71%, 1.66%, 6.81%, 2.02% and 6.12%.
On the same counts, the results for `COC(=O)C1=CO[C@@H](O[C@@H]2O[C@H](CO)[C@@H](O)[C@H](O)[C@H]2O)[C@H]2[C@@H]1C=C[C@]21C=C([C@H](C)OC(=O)/C=C/c2ccc(O)cc2)C(=O)O1` are -5.76%, -9.48%, 2.71%, -20.4% and 0%.
Take `O=C(NCc1cccnc1)C1CN(S(=O)(=O)C2CC2)CC12CCCCC2` (stereo not given): the activity change, negative = inhibition in assay [1] is -1.84%; in assay [2], -0.014%; in assay [3], 0.702%; in assay [4] it was 1.13%; in assay [5], -2.13%.
The corresponding values for `O=C(NC1CCCC1)c1ccc2c(c1)n(Cc1cccc(F)c1)c(=O)c1ccnn12` are -1.19%, -2.37%, -1.27%, -3.21% and -0.015%.
On the same counts, the results for `CCCSCCCN1C(=O)c2nc3ccccc3n2CC1(C)C(=O)NC1CCC(C)CC1` (stereo not given) are -4.45%, 1.57%, 0.508%, -2.93% and -3.85%.
On the same counts, the results for `CCOc1ccccc1CN1C(=O)c2nc3ccccc3n2CC1(C)C(=O)NC1CCCCC1` (stereo not given) are -0.577%, 4.2%, -5.04%, -13.8% and -4.54%.
For `O=C(CCn1ccc2cc(S(=O)(=O)N3CCCCC3)ccc21)NCCCc1ccccc1`, the activity change, negative = inhibition in assay [1] was 5.25%; in assay [2], 0%; in assay [3], 8.67%; in assay [4], 5.24%; in assay [5], 5.48%.
In the case of `COc1ccc(CNC(=O)CCc2nnc3n(CCc4ccccc4)c(=O)c4ccccc4n23)cc1`, the activity change, negative = inhibition in assay [1] was -8.66%; in assay [2], 4.61%; in assay [3] it was 3.75%; in assay [4], 6.01%; in assay [5], -1.49%.
As to `O=C(c1n[nH]c2c1CCCC2)N1CCc2nc3cc[nH]n3c(=O)c2C1`, the activity change, negative = inhibition in assay [1] is -18.1%; in assay [2], -11.8%; in assay [3], -8.82%; in assay [4], -14%; in assay [5], -11.7%.
On the same counts, the results for `Cc1ccc(CNC(=O)C2(C)Cn3cnc(C(=O)Nc4ccc(Cl)cc4F)c3C(=O)N2C2CC2)cc1` (stereo not given) are -3.54%, 0%, 8.38%, -0.321% and 2.7%.
The corresponding values for `O=c1c2ccccc2n2c(-c3cccc(Br)c3)nnc2n1Cc1ccc(F)cc1` are 3.25%, 1.32%, 7.62%, 1.55% and 3.18%.
On the same counts, the results for `CC1CCN([C@@H]2[C@H](O)[C@H](CO)O[C@@H]2CN(Cc2ccc(F)cc2)Cc2ccc(F)cc2)CC1` are 3.51%, 3.6%, -0.053%, 4.05% and 2.12%.
In the case of `CCOc1ccc(CCN2C(=O)c3cc(C(=O)OC)nn3CC2(C)C(=O)NC2CCC(C)CC2)cc1` (stereo not given), the activity change, negative = inhibition in assay [1] was 1.4%; in assay [2] it was 0%; in assay [3] it was 4.4%; in assay [4] it was -1.41%; in assay [5], 2.53%.
The corresponding values for `COC(=O)C1=CO[C@@H](O[C@@H]2O[C@H](CO)[C@@H](O)[C@H](O)[C@H]2O)[C@@H]2C(COC(C)=O)=C[C@H](O)[C@H]12` are 1.6%, 2.29%, 5.03%, -8.66% and 3.38%.
On the same counts, the results for `CCCC1c2ccc(C)n2CCN1C(=O)Nc1ccccc1CC` (stereo not given) are -7.61%, 3.25%, -13%, -2.24% and -6.27%.
On the same counts, the results for `Cc1cccc(CNC(=O)c2cc3n(n2)CC(C)(C(=O)NC2CCCCC2)N(C)C3=O)c1` (stereo not given) are 5.98%, 0%, 6.29%, 9.6% and 2.74%.

The values are drawn from PubChem BioAssay AID1745853 (National Center for Advancing Translational Sciences (NCATS), 2022).
